Reference: the supplement of paper PMC6135742
Counter-ions that a name gives are not always drawn. ± gives the standard deviation of the averaged measurements. Whole data set: some 2,600 compounds, median “total cell number (DAPI+ nuclei) relative to DMSO vehicle control” near -1.4, cut for the lowest 2% near -23. This is one part of the list.

The compounds below were run on jimpy (Plp1 jimpy) mouse iPSC-derived oligodendrocyte progenitor cells (assay: total cell number (DAPI+ nuclei) relative to DMSO vehicle control (SDs above negative control mean); higher = more surviving cells). Conditions: 10 µM; 3 days.
Procedure: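 Primary phenotypic screen of >3,000 bioactive compounds (Selleck L1700 and Sigma LO1280 libraries) at a single dose of 10 µM. Compounds were added to jimpy (Plp1 mutant) mouse iPSC-derived OPCs at the start of thyroid hormone-induced oligodendrocyte differentiation, one well per compound in 384-well plates. After 3 days cells were stained for MBP, Sox10 and DAPI and imaged with an Operetta system. MBP+ oligodendrocyte number and total cell number were expressed as the number of SDs above the mean of the DMSO negative control on the same plate (n=16 control wells per plate). Hits were defined as >=4 SD for oligodendrocytes and >=2 SD for total cells.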

Row | SMILES | total cell number
1 | CCCCc1ccc(C(=O)O)nc1 [Fusaric acid] | -1.95
2 | OC1CCCCC1N1CCC(c2ccccc2)CC1 (racemic) [(±)-Vesamicol hydrochloride] | 6.89
3 | COc1cc(-n2c(=S)[nH]c3ccccc3c2=O)c(Cl)cc1Cl [Mdivi-1] | 0.904
4 | C[N+](C)(C)CC#CCOC(=O)Nc1cccc(Cl)c1 | -2.38
5 | CN1CCC[C@@H]1Cc1c[nH]c2ccc(Nc3ncccc3[N+](=O)[O-])cc12 | -2.61
6 | C[C@]12N[C@H](Cc3ccccc31)c1ccccc12 [MK-801 (Dizocilpine)] | -0.24
7 | O=C1CCCN1CC#CCN1CCCC1 [Oxotremorine sesquifumarate salt] | -1.3
8 | CC(N)Cc1c[nH]c2ccc(O)cc12 (stereo not drawn) [alpha-Methyl-5-hydroxytryptamine maleate] | -1.3
9 | CC(=O)Nc1ccc(OC[C@](C)(O)C(=O)Nc2ccc([N+](=O)[O-])c(C(F)(F)F)c2)cc1 [Andarine] | 0.684
10 | c1ccc(C2(c3ccccc3)CC2C2=NCCN2)cc1 (stereo not given) [Cibenzoline succinate] | -1.65
11 | CCCN(CCC)C1CCc2ccc(O)cc2C1 (stereo not drawn) [R-(+)-7-Hydroxy-DPAT hydrobromide] | 0.303
12 | C[C@](O)(COc1ccc(C#N)cc1)C(=O)Nc1ccc(C#N)c(C(F)(F)F)c1 | 3.27
13 | CC(C)N(CCNC(=O)CN1CCCC1=O)C(C)C [Pramiracetam] | -0.984
14 | CNCC(=O)c1ccc(O)c(O)c1 [Adrenalone HCl] | -0.24
15 | O=C[C@H](Cl)[C@@H](O)[C@H](O)[C@H](O)CO [2-Chloro-2-deoxy-D-glucose] | -0.302
16 | NNC(N)=O [Semicarbazide hydrochloride] | 0.198
17 | Fc1ccc(C(OCCN2CCN(CCCc3ccccc3)CC2)c2ccc(F)cc2)cc1 | -6.27
18 | C=C(C)[C@H]1Cc2c(ccc3c2O[C@@H]2COc4cc(OC)c(OC)cc4[C@@H]2C3=O)O1 [Rotenone] | -9.05
19 | COC(=O)C1=CCCN(C)C1 [Arecoline hydrobromide] | 0.0722
20 | COC(=O)C1=CCCN(C)C1 [Arecoline] | 0.396
21 | C[C@]12CC[C@H]3[C@@H](CC[C@@]45O[C@@H]4C(O)=C(C#N)C[C@]35C)[C@@H]1CC[C@@H]2O [Trilostane] | -3.36
22 | NNC(=O)c1ccc(O)cc1 [4-Hydroxybenzhydrazide] | -1.31
23 | COc1ccc(Cc2nccc3cc(OC)c(OC)cc23)cc1OC [Papaverine hydrochloride] | 3.21
24 | CNCCc1c[nH]c2ccc(O)cc12 [N-omega-Methyl-5-hydroxytryptamine oxalate salt] | -0.776
25 | NCCCP(=O)(O)O [3-Aminopropylphosphonic acid] | -1.08

Row | SMILES | total cell number
26 | NCC(O)c1ccc(O)cc1 (racemic) [(±)-Octopamine hydrochloride] | -1.1
27 | NCC(O)c1ccc(O)cc1 (racemic) [(+,-)-Octopamine HCl] | -1.15
28 | C[C@@H]1O[C@@H](O[C@H]2C[C@@H](O)[C@]3(CO)[C@H]4[C@H](O)C[C@]5(C)[C@@H](C6=CC(=O)OC6)CC[C@]5(O)[C@@H]4CC[C@]3(O)C2)[C@H](O)[C@H](O)[C@H]1O [Ouabain] | 4.31 ± 5.1
29 | Clc1cc(I)cc(Cl)c1NC1=NCCN1 [p-Iodoclonidine hydrochloride] | -1.3
30 | C[C@@H](N)Cc1cnc[nH]1 [Histamine, R(-)-alpha-methyl-, dihydrochloride] | -0.785
31 | CCC1(c2ccc(N)cc2)CCC(=O)NC1=O (stereo not given) [Aminoglutethimide] | -5.69
32 | C[N+]1(C)CCN(c2ccccc2)CC1 [1,1-Dimethyl-4-phenyl-piperazinium iodide] | -0.947
33 | CCN(C)C(=O)Oc1cccc([C@H](C)N(C)C)c1 [Rivastigmine Tartrate] | -0.723
34 | NC(=O)COc1c(F)cc(SCCNS(=O)(=O)c2ccccc2)cc1F | -1.95
35 | CCCN1CCC[C@H](c2cccc(O)c2)C1 [R(+)-3PPP hydrochloride] | -0.98
36 | CN(C(=O)Cc1ccc(Cl)c(Cl)c1)C(CN1CCCC1)c1cccc(OCC(=O)O)c1 (stereo not given) [ICI 204,448 hydrochloride] | 0.46
37 | NCCc1ccc(O)cc1 [4-Hydroxyphenethylamine hydrochloride] | -0.125
38 | CCn1cc(C(=O)O)c(=O)c2cc3c(cc21)OCO3 [Oxolinic acid] | -2.76
39 | C[C@]12CC[C@H](O)C[C@@H]1CC[C@@H]1[C@@H]2CC[C@]2(C)C(=O)CC[C@@H]12 [Epiandrosterone] | -11.1
40 | C[N+]1(C)[C@@H]2C[C@@H](OC(=O)[C@H](CO)c3ccccc3)C[C@H]1[C@@H]1O[C@@H]12 [Methscopolamine] | -2.37
41 | C[N+]1(C)[C@@H]2C[C@@H](OC(=O)[C@H](CO)c3ccccc3)C[C@H]1[C@@H]1O[C@@H]12 [(-)-Scopolamine methyl bromide] | -1.83
42 | CCN1C[C@]2(COC)[C@H](O)C[C@H](OC)[C@@]34[C@@H]5C[C@@]6(O)[C@H](OC(=O)c7ccccc7)[C@@H]5[C@@](OC(C)=O)([C@@H]([C@H](OC)[C@H]23)[C@@H]14)[C@@H](O)[C@@H]6OC [Aconitine] | -0.0482
43 | c1ccc2c(c1)[I+]c1ccccc1-2 [Diphenyleneiodonium chloride] | -10.5
44 | CC(N)Cc1cccc(C(F)(F)F)c1 (single isomer, unassigned; (+)) [(+)-Norfenfluramine hydrochloride] | -0.695
45 | CNc1ccc2oc(C[C@H]3O[C@@]4(CC[C@H]3C)O[C@H]([C@H](C)C(=O)c3ccc[nH]3)[C@H](C)C[C@H]4C)nc2c1C(=O)O [Calcimycin] | -12.8
46 | CCCN1CCc2cccc3c2[C@H]1Cc1ccc(O)c(O)c1-3 [R(-)-Propylnorapomorphine hydrochloride] | -5.94
47 | CC(=O)NBr [N-Bromoacetamide] | -0.843
48 | CC(C)NP(=O)(NC(C)C)OP(=O)(NC(C)C)NC(C)C [Tetraisopropyl pyrophosphoramide] | -0.638
49 | Cc1c2ccncc2c(C)c2c1[nH]c1ccccc12 [Ellipticine] | -11.1
50 | O=P1(NCCCl)OCCCN1CCCl (stereo not given) [Ifosfamide] | -2.07

Row | SMILES | total cell number
51 | Oc1ccc2c3c1O[C@H]1c4oc5ccccc5c4C[C@@]4(O)[C@@H](C2)N(CC2CC2)CC[C@]314 [Naltriben methanesulfonate] | -3.96
52 | CN1CC[C@@]2(C)c3cc(OC(=O)Nc4ccccc4)ccc3N(C)[C@@H]12 [Phenserine] | -2.32
53 | N#CCCN [3-Aminopropionitrile fumarate] | -2.24
54 | NC(=O)CN1CCCC1=O [Piracetam] | -1.06 ± 0.74
55 | Cc1ccc(S(=O)(=O)N[C@@H](CCCCN)C(=O)CCl)cc1 [Na-p-Tosyl-L-lysine chloromethyl ketone hydrochloride] | -1.34
56 | CCCN1CCC[C@@H](c2cccc(O)c2)C1 [S(-)-3PPP hydrochloride] | -2.58
57 | O=C(Oc1ccc([N+](=O)[O-])cc1)N1CCC(C(O)(c2ccc3c(c2)OCO3)c2ccc3c(c2)OCO3)CC1 | 1.26
58 | Cc1cccc(C)c1NC1=NCCCS1 [Xylazine hydrochloride] | -0.676
59 | Cc1cccc(C)c1NC1=NCCCS1 [Xylazine HCl] | -0.661
60 | O=C1CCC[C@@H]2[C@H]3CCCN4CCC[C@@H](CN12)[C@@H]34 [(+)-Matrine] | 2.62
61 | CCNC(=O)[C@H]1O[C@@H](n2cnc3c(N)ncnc32)[C@H](O)[C@@H]1O [5'-N-Ethylcarboxamidoadenosine] | -0.826
62 | COc1cc2c(cc1OC)C1CC(=O)C(CC(C)C)CN1CC2 (stereo not given) [Tetrabenazine] | -0.277
63 | NCCc1c[nH]c2ccccc12 [Tryptamine hydrochloride] | -0.554
64 | Clc1ccc(N2C[C@H]3CC[C@@H](C2)N3)nn1 | -0.523
65 | O=C(O[C@H]1C[N+]2(CCCOc3ccccc3)CCC1CC2)C(O)(c1cccs1)c1cccs1 [Aclidinium Bromide] | 4.34
66 | CC(C)(C)[C@]1(O)CC2OC(=O)CC23C(=O)OC2OC(=O)[C@H](O)C231 (stereo not given in full) [Bilobalide] | 1.36
67 | Cc1cc(SCc2sc(-c3ccc(C(F)(F)F)c(F)c3)nc2C)ccc1OCC(=O)O | 0.239
68 | CC[C@@H]1/C=C/C=C/C[C@H](C)[C@H](O)[C@](C)(O)C(=O)[C@H](C)[C@@H](O)[C@H](C)C(=O)[C@H](C)[C@@H](O)[C@H](C)/C=C/C(=O)O[C@H]2[C@@H](C)[C@@H](CC1)O[C@@]1(CC[C@@H](C)[C@@H](C[C@H](C)O)O1)[C@@H]2C [Oligomycin A] | -27.5
69 | CCCN(CCC)CCc1ccc(O)c(O)c1 [Dipropyldopamine hydrobromide] | -2.32
70 | Ic1ccccc1CNC1C2CCN(CC2)C1C(c1ccccc1)c1ccccc1 [L-703,606 oxalate salt hydrate] | -11.4
71 | NCCc1c[nH]c2ccc(O)cc12 [Serotonin hydrochloride] | -2.26
72 | NCCc1c[nH]c2ccc(O)cc12 [Serotonin HCl] | -1.15
73 | C/C=C(\C)C(=O)N[C@@H](c1ccccc1)[C@@H](O)C(=O)O[C@H]1C[C@@]2(O)[C@@H](OC(=O)c3ccccc3)[C@@H]3[C@]4(OC(C)=O)CO[C@@H]4C[C@H](O)[C@@]3(C)C(=O)[C@H](OC(C)=O)C(=C1C)C2(C)C [Cephalomannine] | -8.28
74 | CCC(COC(=O)c1cc(OC)c(OC)c(OC)c1)(c1ccccc1)N(C)C (stereo not given) [Trimebutine] | 1.99
75 | CC[C@H]1CN2CCc3cc(OC)c(OC)cc3[C@@H]2C[C@@H]1C[C@H]1NCCc2cc(OC)c(OC)cc21 [Emetine dihydrochloride hydrate] | -10
